PubChem BioAssay AID686978 (National Center for Advancing Translational Sciences (NCATS), 2013)
“And” between values parts separate entries of the source, which are not always exact repeats. Equal values may be shown once. Among all 420,000 compounds or so, about 64,000 (15%) were called active. This list was built around the results that the source calls inconclusive (neither active nor inactive); the mix of calls is not that of the screen. Calls come from the whole dose curve; as a rule, active = well fitted inhibition curve with a large enough effect; inconclusive = small, poorly fitted or top-dose-only effect; inactive = flat fitted curve, though single readings scatter. Potencies of inconclusive entries are doubtful fits and often do not repeat.

assay: qHTS for Inhibitors of human tyrosyl-DNA phosphodiesterase 1 (TDP1): qHTS in cells in absence of CPT; conditions: DT40 Tdp1-/- hTDP1 cells, no CPT, ATP luminescence, 48 h; activity change, negative = growth inhibition: at 46.2 µM (top of the series) unless noted; note: nearly all actives have a fitted effect of over 55% in size
Summary of the method: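 Stably hTDP1-transfected Tdp1-null chicken DT40 cells were treated with library compounds minus camptothecin and grown for at least 48 hr at 37 °C, after which cellular ATP was quantified by luminescence.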
% is set by controls: 0 for no effect and ±100 for the full control effect; potency is the fitted concentration of half-maximal effect; tags give direction and shape of the fitted curve.

SMILES | Potency | activity change, negative = growth inhibition
Cc1ccc(NC(=O)CCc2nc3ccccc3s2)c(O)c1 | inconclusive: 23.1 µM [inhibitor, single point] | 
C=CC(=O)c1ccc2ccccc2c1 | active: 2.31 µM | 
COc1ccc(NC2CCCN(C(=O)CCOc3ccccc3)C2)cc1 (configuration not stated) |  | inactive: -17.3%
COc1cccc2c1CCC1=CC(=O)CC[C@@]12C |  | inactive: -2.52%
CCOC(=O)c1ccc(NC(=O)c2cnc(N3CCCC3)nc2C)cc1 | inconclusive: 23.1 µM [inhibitor, single point] | 
CC1CCN(CC(O)COc2ccc(-c3ccccc3)cc2)CC1 (configuration not stated) | active: 18.4 µM | 
O=C(c1cccc(C(=O)N2CCN(c3ccc(F)cc3)CC2)c1)N1CCN(c2ccc(F)cc2)CC1 | active: 13 µM | 
Cc1ccccc1N(CC(=O)N1CCc2ccccc2C1)S(C)(=O)=O |  | inactive: 15.4%
CCOC(=O)c1[nH]c2c(c1Cc1ccccc1)C(=O)CC(c1ccc(OC)cc1)C2 (configuration not stated) | active: 20.6 µM | 
O=C(/C=C/c1cccc(Cl)c1)c1nc2ccccc2[nH]1 | active: 9.2 µM | 
CCCCCCOc1ccc(/C(C)=N/NC2=NCCN2)cc1 | inconclusive: 29.1 µM [inhibitor, single point] | 
COc1ccc(C/C(C)=N/NC(=S)Nc2ccc(C(C)C)cc2)cc1 | inconclusive: 20.6 µM [inhibitor, single point] | 
CCCc1cc(C(=O)NNC(=S)Nc2cccc(C)c2)cs1 | inconclusive: 2.59 µM [inhibitor, partial curve, poor fit] | 
COc1cccc(N2CCN(C(=O)CN3C(=O)NC(C)(c4ccc5ccccc5c4)C3=O)CC2)c1 (configuration not stated) | active: 16.4 µM | 
OCCN1CCN(CC#CCn2c3ccccc3c3ccccc32)CC1 | inconclusive: 29.1 µM [inhibitor, single point] | 
Cc1cc(Cl)ccc1OC(C)C(=O)Nc1ccc([N+](=O)[O-])cn1 (configuration not stated) | inconclusive: 25.9 µM [inhibitor, single point] | 
CCc1ccc(NC(=O)CSC2=Nc3ccccc3C3=NC(CC(=O)NCc4ccc5c(c4)OCO5)C(=O)N23)cc1 (configuration not stated) | active: 23.1 µM | 
Cc1ccccc1Cn1c(=O)n(CCCCC(=O)NCCc2ccccc2)c(=O)c2ccccc21 | inconclusive: 4.61 µM [inhibitor, full curve] | 
COc1ccccc1C#Cc1cnc2c(c1)C(=O)N([C@H](C)CO)C[C@@H](C)[C@@H](CN(C)C(=O)c1ccc3c(c1)OCO3)O2 | inconclusive: 29.1 µM [inhibitor, single point] | 
CN(C)c1ccc(NC(=O)Cn2c(SCc3ccc(F)cc3)nc3cccnc32)cc1 | inconclusive: 4.61 µM [inhibitor, partial curve] | 
Cc1nc(/N=C(\N)NC(=O)N2c3ccccc3Sc3ccccc32)nc2ccccc12 | inconclusive: 25.9 µM [inhibitor, single point] | 
O=C(CN(C(=O)CNC(=O)c1cccs1)c1ccccc1)NC1CCCCC1 |  | inactive: -0.0779%
CC(C)C(NC(=O)c1ccccc1)C(=O)OCC(=O)N1CCN(c2ccccc2)CC1 (configuration not stated) | inconclusive: 20.6 µM [inhibitor, single point] | 

SMILES | Potency | activity change, negative = growth inhibition
COC1(NS(=O)(=O)c2ccc(Br)cc2)C(C)=CC(=O)C=C1C | inconclusive: 25.9 µM [inhibitor, single point] | 
Cn1c(SCC(=O)Nc2ccc(Br)cc2F)nnc1-c1ccco1 |  | inactive: 6.11%
Cc1ccc(S(=O)(=O)N2CCN(CC(=O)N/N=C\C(Cl)=C\c3ccccc3)CC2)cc1 | inconclusive: 29.1 µM [inhibitor, single point] | 
CCCN1CCN(C(=O)c2ccc(Sc3ccc(C)cc3)c(NC(C)=O)c2)CC1 | inconclusive: 29.1 µM [inhibitor, single point] | 
COc1ccc(NC(=O)NC[C@@H]2CC[C@@H](Cc3ccc(-c4ccccc4)cc3)O2)cc1 | inconclusive: 16.4 µM [inhibitor, single point] | 
CCCC(=O)Nc1ccc(NC(=O)c2sc3ccccc3c2Cl)cc1 | inconclusive: 3.26 µM [inhibitor, full curve, poor fit] | 
COc1ccc(C(=O)C2CCCN(C(=O)c3noc4c3CCCC4)C2)cc1F (configuration not stated) | active: 18.4 µM | 
N#Cc1cccc(-c2nccc(NCc3cccnc3)n2)c1 | inconclusive: 29.1 µM [inhibitor, single point] | 
O=C(NCc1ccccc1Cl)C1CCCN1C(=O)Nc1ccccc1 (configuration not stated) |  | inactive: 1.82%
COc1ccc(NC(=O)c2ccc(NC3CC(=O)N(c4ccc(C)cc4C)C3=O)cc2)cc1 (configuration not stated) | inconclusive: 16.4 µM [inhibitor, single point] | 
CCc1ccc2nc(N(Cc3cccnc3)C(=O)c3cccs3)sc2c1 | inconclusive: 23.1 µM [inhibitor, single point] | 
COc1ccc(N2CCN(C(=O)c3cccc(S(=O)(=O)N4CCCc5ccccc54)c3)CC2)cc1 | inconclusive: 29.1 µM [inhibitor, single point] | 
Cc1cc(C=C2C(=O)c3ccccc3C2=O)c(C)n1-c1cccc(C(=O)O)c1 | inconclusive: 29.1 µM [inhibitor, single point] | 
COc1ccc(/C=C/C(=O)NCc2cn(C)nc2C)cc1COc1ccc(Cl)cc1Br | inconclusive: 3.16 µM [inhibitor, full curve] | 
COCc1cccc(-c2csc(C(C)(O)c3ccc(OC)cc3)n2)c1 (configuration not stated) | inconclusive: 20.6 µM [inhibitor, single point] | 
O=C(c1ccncc1)N1CCC[C@@]2(CCN(c3cccc(-c4ccccc4)c3)C2)C1 | inconclusive: 23.1 µM [inhibitor, single point] | 
CCNC(=O)CON=C1c2ccccc2-c2ccccc21 | inconclusive: 18.4 µM [inhibitor, partial curve, poor fit] | 
O=[N+]([O-])c1nn(-c2ccc3c(c2)OCCO3)n(O)c1=NCc1ccc(F)cc1 | inconclusive: 32.6 µM [inhibitor, partial curve, poor fit] | 
C=CCNc1cc(F)ccc1S(=O)(=O)NCC=C |  | inactive: -13.5%
CSC1=N/C(=C\C=C\c2cccs2)C(=O)S1 | inconclusive: 16.4 µM [inhibitor, partial curve] | 
COc1ccccc1C(=O)Nc1nnc(S(=O)(=O)N(C)Cc2ccccc2)s1 |  | inactive: -15.3%
COc1ccc(NC(=O)CN(c2cccc(C)c2C)S(=O)(=O)c2ccccc2)cc1OC | inconclusive: 29.1 µM [inhibitor, single point] | 
O=C(COC(=O)/C=C/c1cccc([N+](=O)[O-])c1)NCC1CCCO1 (configuration not stated) |  | inactive: -18.3%

SMILES | Potency | activity change, negative = growth inhibition
CCOC(=O)CSC1=Nc2ccccc2C2=NC(CCC(=O)NCc3ccccc3)C(=O)N12 (configuration not stated) | inconclusive: 11.6 µM [inhibitor, partial curve] | 
CC(C)c1ccc(NC(=O)C(c2ccc3c(c2)OCO3)N2CCN(C(=O)c3ccco3)CC2)cc1 (configuration not stated) | inconclusive: 22.4 µM [inhibitor, single point] | 
O=C(Nc1nnc(Cc2ccccc2)s1)C1CCN(C(=O)c2cccs2)CC1 | inconclusive: 35.5 µM [inhibitor, single point] | 
O=C(NCc1ccccc1)c1cc(C2COCCN2C(=O)C/C=C/c2ccccc2)on1 (configuration not stated) | inconclusive: 23.1 µM [inhibitor, single point] | 
OC1CCN(c2c3c(nc4cc(-c5ccc(F)cc5)nn24)CCC3)CC1 | inconclusive: 25.9 µM [inhibitor, single point] | 
CC1CCCCN1C(=O)CN1CCC(c2nc3ccc(Cl)cc3[nH]2)CC1 (configuration not stated) | active: 23.1 µM | 
COc1ccc(C(=O)N2CCN(C(=O)COc3ccc(Br)cc3)CC2)cc1OC | inconclusive: 16.4 µM [inhibitor, single point] | 
N=c1oc2ccccc2cc1C(=O)NCc1ccccc1 | inconclusive: 25.9 µM [inhibitor, single point] | 
CCCN1CCC(=O)N([C@H](COc2ccccc2)Cc2ccccc2)CC1 | inconclusive: 25.1 µM [inhibitor, single point] and inconclusive: 23.1 µM [inhibitor, single point] | 
Cc1cc2c(cc1C)C(c1cccc(OC(C)C)c1)CC(=O)N2 (configuration not stated) | active: 23.1 µM | 
CN(C)CCCCCCNc1cc(N2CCN(C)CC2)ncn1 |  | inactive: 0.0929%
OCC1(Cc2cccc(Cl)c2)CCCN(Cc2sc(N3CCCC3)nc2Cl)C1 (configuration not stated) | active: 18.4 µM | 
CC(=O)Nc1nccc(-c2cc(-c3ccccc3)no2)n1 | inconclusive: 0.461 µM [inhibitor, full curve, poor fit] | 
CC1CN(C(=O)N2CCC(C(=O)NCCC3=CCCCC3)CC2)c2ccccc2O1 (configuration not stated) | inconclusive: 10.3 µM [inhibitor, partial curve] | 
Cc1nn(C(=O)c2nn(C)cc2Cl)c(C)c1Br |  | inconclusive: -3.54% [inhibitor]
Cc1onc(-c2c(Cl)cccc2Cl)c1C(=O)N1CCN(c2ccccc2)CC1 | inconclusive: 16.4 µM [inhibitor, single point] | 
COc1cc2c(=O)c(S(=O)(=O)c3ccc(C)cc3)cn(Cc3cccc(C)c3)c2cc1OC | active: 16.4 µM | 
COc1cccc(NC(=O)c2cc(-c3cccnc3)nc3c(Cl)cccc23)c1 | inconclusive: 29.1 µM [inhibitor, single point] | 
C=CCNC(=O)C1CCN(S(=O)(=O)c2ccc(Br)cc2)CC1 | active: 16.4 µM | 
CC(=O)Nc1ccc(C(=O)N2c3ccccc3N=C(c3ccc4c(c3)OCO4)C2C(=O)NCc2ccccc2)cc1 (configuration not stated) | inconclusive: 25.9 µM [inhibitor, partial curve] | 
O=C(CSc1nnc(-c2cccs2)o1)Oc1ccc(Cl)cc1 |  | inactive: -4.21%
